Test results taken from patent US20250059278A1 (SICHUAN HUIYU PHARMACEUTICAL, published 2025).
Each block holds one binder with its values, some of them ahead of it.

Tests used:
[1] = biological target: T1, Monkey CD3 on cynomolgus HSC-F cells (cynomolgus monkey, UniProt Q95LI5 22-198; Q95LI7 23-181; Q95LI8 22-171); experiment: flow cytometry on HSC-F cells
T1 construct: whole, on cells; also called Monkey CD3-expressing cynomolgus HSC-F cells; cynomolgus monkey CD3-expressing HSC-F cells

[2] = biological target: T2, Human CD3 on Jurkat cells (human, UniProt P07766; P09693; P04234); experiment: flow cytometry on Jurkat cells
T2 construct: whole, on cells; also called Human CD3-expressing Jurkat cells; Jurkat (naturally expressing human CD3)

[3] = biological target: T3, Human CD3εγ recombinant antigen (acrobiosystems, Cat. No. CDG-H52W5) (human, UniProt P07766 23-126; P09693 23-116); experiment: SPR chip (Carterra), antibody captured, antigen in flow
T3 construct: Bought recombinant protein

T1 sequence (Q95LI5 22-198, chain 1 of 3): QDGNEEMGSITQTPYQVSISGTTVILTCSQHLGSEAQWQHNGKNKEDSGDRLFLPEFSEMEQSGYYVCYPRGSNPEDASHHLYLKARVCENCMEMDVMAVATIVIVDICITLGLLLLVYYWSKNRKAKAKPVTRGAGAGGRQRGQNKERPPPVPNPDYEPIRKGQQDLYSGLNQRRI
T1 sequence (Q95LI7 23-181, chain 2 of 3, further chain): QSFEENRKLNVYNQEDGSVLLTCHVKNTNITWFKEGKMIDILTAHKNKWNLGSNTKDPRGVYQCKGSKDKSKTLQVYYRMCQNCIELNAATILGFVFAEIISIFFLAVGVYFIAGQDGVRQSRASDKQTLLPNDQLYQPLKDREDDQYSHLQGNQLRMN
T1 sequence (Q95LI8 22-171, chain 3 of 3, further chain): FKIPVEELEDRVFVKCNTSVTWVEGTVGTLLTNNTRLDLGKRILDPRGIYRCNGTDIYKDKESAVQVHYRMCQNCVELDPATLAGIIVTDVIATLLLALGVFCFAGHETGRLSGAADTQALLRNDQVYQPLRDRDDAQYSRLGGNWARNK

- EC50 [1]: 0.242 nM
- EC50 [2]: 0.505 nM
- Kd [3]: 3.6 nM
- koff [3]: 0.0044 s⁻¹
- kon [3]: 1.2e+06 M⁻¹ s⁻¹
B1: CD3-MSLN bispecific antibody B29 (bispecific antibody, human IgG1, lambda)
heavy: EVQLVESGGGLVQPGGSLRLSCAASGFTFNTYAMNWVRQAPGKGLEWVARIRSKYNNYATYYADSVKGRFTISRDDSKSILYLQMNSLKTEDTAMYYCVRHGNFPMSYVSWFAYWGQGTLVTVSSASTKGPSVFPLAPSSKSTSGGTAALGCLVKDYFPEPVTVSWNSGALTSGVHTFPAVLQSSGLYSLSSVVTVPSSSLGTQTYICNVNHKPSNTKVDKKV[letters of human IgG1 Fc with changes omitted]GGGGSGGGGSEVQLVESGGGLVQAGESLRLSCAVSGNIGSIRHMGWHRQDPGKERELVATITTVGTTYYANFVKGRFTISRDNAKNTVYLQMNSLKPEDTGVYYCRATAHPTDYWGQGTQVTVSS
light: [letters of about 100 residues omitted][letters of about 100 residues omitted]
notes: [VH29]-[CH]-[L]-[3C6 VHH] with [VL-1]-[CL]

- EC50 [1]: 0.198 nM
- EC50 [2]: 1.29 nM
- Kd [3]: 0.65 nM
- koff [3]: 0.0018 s⁻¹
- kon [3]: 2.7e+06 M⁻¹ s⁻¹
B2: CD3-MSLN bispecific antibody B31 (bispecific antibody, human IgG1, lambda)
heavy: EVQLVESGGGLVQPGGSLRLSCAASGFTFNTYAMNWVRQAPGKGLEWVARIRSKYNNYATYYADSVKGRFTISRDDSKSILYLQMNNLKTEDTAVYYCVRHSNFGNSYVSWFEYWGQGTLVTVSSASTKGPSVFPLAPSSKSTSGGTAALGCLVKDYFPEPVTVSWNSGALTSGVHTFPAVLQSSGLYSLSSVVTVPSSSLGTQTYICNVNHKPSNTKVDKKV[letters of human IgG1 Fc with changes omitted]GGGGSGGGGSEVQLVESGGGLVQAGESLRLSCAVSGNIGSIRHMGWHRQDPGKERELVATITTVGTTYYANFVKGRFTISRDNAKNTVYLQMNSLKPEDTGVYYCRATAHPTDYWGQGTQVTVSS
light: [letters of about 100 residues omitted][letters of about 100 residues omitted]
notes: [VH31]-[CH]-[L]-[3C6 VHH] with [VL-1]-[CL]

- EC50 [1]: 0.273 nM
- EC50 [2]: 0.736 nM
- Kd [3]: 0.61 nM
- koff [3]: 0.00068 s⁻¹
- kon [3]: 1.1e+06 M⁻¹ s⁻¹
B8: CD3-MSLN bispecific antibody B35 (bispecific antibody, human IgG1, lambda)
heavy: EVQLVESGGGLVQPGGSLRLSCAASGFTFNTYAMNWVRQAPGKGLEWVARIRSKYNNYATYYADSVKDRFTISRDDSKSSLYLQMNNLKTEDTAVYYCVRHSNFGNSYVSWWAYWGQGTLVTVSSASTKGPSVFPLAPSSKSTSGGTAALGCLVKDYFPEPVTVSWNSGALTSGVHTFPAVLQSSGLYSLSSVVTVPSSSLGTQTYICNVNHKPSNTKVDKKV[letters of human IgG1 Fc with changes omitted]GGGGSGGGGSEVQLVESGGGLVQAGESLRLSCAVSGNIGSIRHMGWHRQDPGKERELVATITTVGTTYYANFVKGRFTISRDNAKNTVYLQMNSLKPEDTGVYYCRATAHPTDYWGQGTQVTVSS
light: [letters of about 100 residues omitted][letters of about 100 residues omitted]
notes: [VH35]-[CH]-[L]-[3C6 VHH] with [VL-1]-[CL]

Further lines, the binder ahead of its results:

B3: CD3-MSLN bispecific antibody B17 (bispecific antibody, human IgG1, lambda)
heavy: EVQLVESGGGLVQPGGSLRLSCAASGFTFNTYAMNWVRQAPGKGLEWVARIRSKYNNYATYYADSVKDRFTISRDDSKSILYLQMNSLKTEDTAMYYCVRHGNFWNSYVSWFASWGQGTLVTVSSASTKGPSVFPLAPSSKSTSGGTAALGCLVKDYFPEPVTVSWNSGALTSGVHTFPAVLQSSGLYSLSSVVTVPSSSLGTQTYICNVNHKPSNTKVDKKV[letters of human IgG1 Fc with changes omitted]GGGGSGGGGSEVQLVESGGGLVQAGESLRLSCAVSGNIGSIRHMGWHRQDPGKERELVATITTVGTTYYANFVKGRFTISRDNAKNTVYLQMNSLKPEDTGVYYCRATAHPTDYWGQGTQVTVSS
light: [letters of about 100 residues omitted][letters of about 100 residues omitted]
notes: [VH17]-[CH]-[L]-[3C6 VHH] with [VL-1]-[CL]
- EC50 [1]: 0.147 nM
- EC50 [2]: 0.145 nM
- Kd [3]: 1.6 nM
- koff [3]: 0.001 s⁻¹
- kon [3]: 650000 M⁻¹ s⁻¹

B4: CD3-MSLN bispecific antibody B2 (bispecific antibody, human IgG1, lambda)
heavy: EVQLVESGGGLVQPGGSLRLSCAASGFTFNTYAMNWVRQAPGKGLEWVARIRSKYNNYATYYADSVKGRFTISRDDSKSSLYLQMNSLKTEDTAMYYCVRAKNFGNSYVSWFAYWGQGTLVTVSSASTKGPSVFPLAPSSKSTSGGTAALGCLVKDYFPEPVTVSWNSGALTSGVHTFPAVLQSSGLYSLSSVVTVPSSSLGTQTYICNVNHKPSNTKVDKKV[letters of human IgG1 Fc with changes omitted]GGGGSGGGGSEVQLVESGGGLVQAGESLRLSCAVSGNIGSIRHMGWHRQDPGKERELVATITTVGTTYYANFVKGRFTISRDNAKNTVYLQMNSLKPEDTGVYYCRATAHPTDYWGQGTQVTVSS
light: [letters of about 100 residues omitted][letters of about 100 residues omitted]
notes: [VH2]-[CH]-[L]-[3C6 VHH] with [VL-1]-[CL]
- EC50 [1]: 0.182 nM
- EC50 [2]: 0.131 nM
- Kd [3]: 6.1 nM
- koff [3]: 0.0034 s⁻¹
- kon [3]: 550000 M⁻¹ s⁻¹

B5: CD3-MSLN bispecific antibody B25 (bispecific antibody, human IgG1, lambda)
heavy: EVQLVESGGGLVQPGGSLRLSCAASGFTFNTYAMNWVRQAPGKGLEWVARIRSKYNNYATYYADSVKDRFTISRDDSKSILYLQMNSLKTEDTAMYYCVRHGNFGNSRVSWFAYWGQGTLVTVSSASTKGPSVFPLAPSSKSTSGGTAALGCLVKDYFPEPVTVSWNSGALTSGVHTFPAVLQSSGLYSLSSVVTVPSSSLGTQTYICNVNHKPSNTKVDKKV[letters of human IgG1 Fc with changes omitted]GGGGSGGGGSEVQLVESGGGLVQAGESLRLSCAVSGNIGSIRHMGWHRQDPGKERELVATITTVGTTYYANFVKGRFTISRDNAKNTVYLQMNSLKPEDTGVYYCRATAHPTDYWGQGTQVTVSS
light: [letters of about 100 residues omitted][letters of about 100 residues omitted]
notes: [VH25]-[CH]-[L]-[3C6 VHH] with [VL-1]-[CL]
- EC50 [1]: 0.184 nM
- EC50 [2]: 0.0973 nM
- Kd [3]: 6.4 nM
- koff [3]: 0.0058 s⁻¹
- kon [3]: 910000 M⁻¹ s⁻¹

B6: CD3-MSLN bispecific antibody B15 (bispecific antibody, human IgG1, lambda)
heavy: EVQLVESGGGLVQPGGSLRLSCAASGFTFNTYAMNWVRQAPGKGLEWVARIRSKYNNYATYYADSVKDRFTISRDDSKSSLYLQMNSLKTEDTAMYYCVRHGDPGNSYVSWFAYWGQGTLVTVSSASTKGPSVFPLAPSSKSTSGGTAALGCLVKDYFPEPVTVSWNSGALTSGVHTFPAVLQSSGLYSLSSVVTVPSSSLGTQTYICNVNHKPSNTKVDKKV[letters of human IgG1 Fc with changes omitted]GGGGSGGGGSEVQLVESGGGLVQAGESLRLSCAVSGNIGSIRHMGWHRQDPGKERELVATITTVGTTYYANFVKGRFTISRDNAKNTVYLQMNSLKPEDTGVYYCRATAHPTDYWGQGTQVTVSS
light: [letters of about 100 residues omitted][letters of about 100 residues omitted]
notes: [VH15]-[CH]-[L]-[3C6 VHH] with [VL-1]-[CL]
- EC50 [1]: 0.164 nM
- EC50 [2]: 0.17 nM

B7: CD3-MSLN bispecific antibody B19 (bispecific antibody, human IgG1, lambda)
heavy: EVQLVESGGGLVQPGGSLRLSCAASGFTFNTYAMNWVRQAPGKGLEWVARIRSKYNNYATYYADSVKDRFTISRDDSKSILYLQMNSLKTEDTAVYYCVRHGNFGNSAVSWFQYWGQGTLVTVSSASTKGPSVFPLAPSSKSTSGGTAALGCLVKDYFPEPVTVSWNSGALTSGVHTFPAVLQSSGLYSLSSVVTVPSSSLGTQTYICNVNHKPSNTKVDKKV[letters of human IgG1 Fc with changes omitted]GGGGSGGGGSEVQLVESGGGLVQAGESLRLSCAVSGNIGSIRHMGWHRQDPGKERELVATITTVGTTYYANFVKGRFTISRDNAKNTVYLQMNSLKPEDTGVYYCRATAHPTDYWGQGTQVTVSS
light: [letters of about 100 residues omitted][letters of about 100 residues omitted]
notes: [VH19]-[CH]-[L]-[3C6 VHH] with [VL-1]-[CL]
- EC50 [1]: 0.15 nM
- EC50 [2]: 0.141 nM
- Kd [3]: 3.3 nM
- koff [3]: 0.0049 s⁻¹
- kon [3]: 1.5e+06 M⁻¹ s⁻¹
